{"source": "the supplement of paper PMC9446081", "note": "About 220 (0.56%) of roughly 39,000 compounds showed activity. The list shows a part of the results.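 Further: static incubation at 37 °C against the wild-type strain, values averaged over two biological replicates.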", "data": [{"test_system": "Escherichia coli K-12 BW25113", "experiment": "relative growth (OD600 normalised to plate interquartile mean) (fraction); higher = less growth inhibition, active = 0.2 or less", "conditions": "50 µM; LB; incubation time: overnight (16-24 h)", "values": [{"molecule": "COc1ccc(NC(=O)N(C)C[C@H]2OCCCC[C@H](C)Oc3ccc(NC(=O)Nc4cccc5ccccc45)cc3C(=O)N([C@H](C)CO)C[C@H]2C)cc1", "relative growth": "inactive: 0.884"}, {"molecule": "CCCCC[C@H]1C[C@H](O[C@H]2O[C@@H](CO)[C@@H](O)[C@@H](O)[C@@H]2O)CC(=O)O1", "relative growth": "inactive: 0.991"}, {"molecule": "C[C@@H]1CCCCO[C@H](CN(C)C(=O)Nc2ccccc2)[C@@H](C)CN([C@H](C)CO)C(=O)c2cc(NC(=O)Cc3ccccc3)ccc2O1", "relative growth": "inactive: 0.984"}, {"molecule": "C[C@H](CO)N1C[C@H](C)[C@H](CN(C)S(=O)(=O)c2ccc(Cl)cc2)OCCCC[C@H](C)Oc2ccc(NS(=O)(=O)c3cccs3)cc2C1=O", "relative growth": "inactive: 0.999"}, {"molecule": "COc1ccc(-c2cnc3c(c2)C(=O)N([C@H](C)CO)C[C@@H](C)[C@@H](CN(C)C(=O)Cc2cccnc2)O3)cc1", "relative growth": "inactive: 1.02"}, {"molecule": "O=C(C[C@@H]1C[C@@H]2c3cc(NC(=O)c4ccc5c(c4)OCO5)ccc3O[C@@H]2[C@@H](CO)O1)NCCN1CCCCC1", "relative growth": "inactive: 1.01"}, {"molecule": "CC(C)NC(=O)N(C)C[C@H]1OCCCC[C@H](C)Oc2ccc(NC(=O)C3CCCCC3)cc2C(=O)N([C@H](C)CO)C[C@H]1C", "relative growth": "inactive: 1.01"}, {"molecule": "COCCC(=O)N1CCN(c2ccccn2)CC1", "relative growth": "inactive: 0.974"}, {"molecule": "CCOC(=O)CC1=NNC(=N)SC1", "relative growth": "inactive: 1"}, {"molecule": "CO[C@@H]1CN(C)C(=O)c2cc(NC(=O)C3CCOCC3)ccc2OC[C@@H](C)N(C(=O)Nc2ccc(C(F)(F)F)cc2)C[C@H]1C", "relative growth": "inactive: 0.939"}, {"molecule": "C[C@H](CO)N1C[C@H](C)[C@@H](CN(C)C(=O)Nc2ccc3c(c2)OCO3)Oc2ncc(-c3cncnc3)cc2C1=O", "relative growth": "inactive: 0.999"}, {"molecule": "C[C@@H]1CN([C@H](C)CO)C(=O)c2cc(Br)cnc2O[C@@H]1CN(C)S(=O)(=O)c1ccc(F)cc1", "relative growth": "inactive: 1.01"}, {"molecule": "COc1cccc(S(=O)(=O)N2C[C@H](O)COC[C@H]3O[C@@H](CC(=O)N4CCN(C)CC4)CC[C@@H]32)c1", "relative growth": "inactive: 0.948"}, {"molecule": "COC(=O)[C@@H]1OC(=O)[C@H]2O[C@@]23[C@]2(C)[C@@H](O)C[C@H]4C(C)(C)[C@H](OC(C)=O)C[C@H](OC(C)=O)[C@]4(C)[C@@H]2CC[C@@]13C", "relative growth": "inactive: 0.981"}, {"molecule": "COc1cccc(CNC(=O)c2cc3c(c(-c4cccc(-c5cccc(C#N)c5)c4)n2)[C@H](CCO)N([S@@](=O)C(C)(C)C)C3)c1", "relative growth": "inactive: 0.987"}, {"molecule": "CC(=O)N[C@H](Cc1ccc2ccccc2c1)C(=O)N[C@H](Cc1ccc(Cl)cc1)C(=O)N[C@H](Cc1cccnc1)C(=O)N[C@@H](CO)C(=O)N[C@@H](Cc1ccc(NC(=O)[C@@H]2CC(=O)NC(=O)N2)cc1)C(=O)N[C@H](Cc1ccc(NC(N)=O)cc1)C(=O)N[C@@H](CC(C)C)C(=O)N[C@@H](CCCCNC(C)C)C(=O)N1CCC[C@H]1C(=O)N[C@H](C)C(N)=O", "relative growth": "inactive: 1.02"}]}]}
